According to US20220348657A1 (Five Prime, published 2022):

Assays:
Test in all cases: cell-based or functional assay
[1] = biological target: T1, CD28 expressed on the surface of TCR/CD3 Effector Cells (Promega cat #J129A) (UniProt P10747 19-220, limits assumed)
[2] = biological target: T1, CD28 expressed on the surface of …; remark: listed apart in the source
[3] = biological target: T1, CD28 expressed on the surface of …; remark: listed apart in the source
[4] = biological target: T1, CD28 expressed on the surface of …; remark: listed apart in the source

C (EC50); activator cells sorted by CD64: High [1]: 26.7 ng/mL | C (EC50); activator cells sorted by CD64: Low [1]: 15.5 ng/mL | C (EC50); activator cells sorted by CD64: Medium [1]: 13.6 ng/mL | C (EC50); activator cells sorted by CD64: Pool [1]: 12.9 ng/mL | D/A (fold response); activator cells sorted by CD64: High [1]: 4.7 | D/A (fold response); activator cells sorted by CD64: Low [1]: 4.2 | D/A (fold response); activator cells sorted by CD64: Medium [1]: 5.2 | D/A (fold response); activator cells sorted by CD64: Pool [1]: 5.1 | C (EC50); activator cells sorted by OKT3: High [2]: 5.9 ng/mL | C (EC50); activator cells sorted by OKT3: Low [2]: 4.76 ng/mL | C (EC50); activator cells sorted by OKT3: Medium [2]: 4.62 ng/mL | C (EC50); activator cells sorted by OKT3: Pool [2]: 5.31 ng/mL | C (EC50); M1 activator cells, 20 K cells per well [3]: 22 ng/mL | C (EC50); M1 activator cells, 40 K cells per well [3]: 51 ng/mL | C (EC50); M1 activator cells, 60 K cells per well [3]: 65 ng/mL | C (EC50); M1 activator cells, 80 K cells per well [3]: 82 ng/mL | D/A (fold response); M1 activator cells, 20 K cells per well [3]: 6.2 | D/A (fold response); M1 activator cells, 40 K cells per well [3]: 5.9 | D/A (fold response); M1 activator cells, 60 K cells per well [3]: 6 | D/A (fold response); M1 activator cells, 80 K cells per well [3]: 6.6 | C (EC50); M1 activator cells cultured 1 week [4]: 50.7 ng/mL | C (EC50); M1 activator cells cultured 3 weeks [4]: 50.5 ng/mL | C (EC50); M1 activator cells cultured 4 weeks [4]: 51.4 ng/mL
B1: CD80 ECD-Fc fusion protein (Human CD80 ECD Human Fc IgG1 WT) (Fc fusion)
chain: VIHVTKEVKEVATLSCGHNVSVEELAQTRIYWQKEKKMVLTMMSGDMNIWPEYKNRTIFDITNNLSIVILALRPSDEGTYECVVLKYEKDAFKREHLAEVTLSVKADFPTPSISDFEIPTSNIRRIICSTSGGFPEPHLSWLENGEELNAINTTVSQDPETELYAVSSKLDFNMTTNHSFMCLIKYGHLRVNQTFNWNTTKQEHFPDN[gap - human IgG1 Fc with changes]
